Assay results published in PubChem BioAssay AID1963576 (National Center for Advancing Translational Sciences (NCATS), 2024).
Among all 46,000 compounds or so, about 60 (0.1%) were called active. Not shown: some 3% with an inconclusive outcome. The call rests on the fitted dose curve; in most records, active means well fitted inhibition curve with a large enough effect; inconclusive means small, poorly fitted or top-dose-only effect; inactive means no such curve, though single readings can be large or run the other way. This is one part of the list.

Test: Primary qHTS assay for Inhibitors of ovarian cancer metastasis using an organotypic tumor microenvironment (TME) model. Further: nearly all actives have a fitted effect of over 65% in size.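 On activity change, negative = inhibition: plate controls were DMSO wells for no effect and tomatine positive control wells for full effect.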
Settings: SKOV3ip1-GFP adhesion/invasion on 3D omental model, fluorescence; series mostly up to 45.8 µM; activity change, negative = inhibition: at the top concentration
Summary of the method: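 Adhesion/invasion was scored as fixed GFP-labeled SKOV3ip1 cell counts (488/509 nm), normalized to DMSO and tomatine controls. Cancer cells in serum-free medium, with four compound doses (0.36-46 umol/L), sat 2 hr at RT then 16 hr at 37 C on a 48 hr fibroblast/mesothelial/ECM culture.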

Activity change, negative = inhibition, inactive:
CCOC(=O)C(C)Sc1nnc2cc(C)c3ccccc3n12 (stereo not given) 26.1%
COc1ccc(CNC(=O)CCCn2ccc3cc(S(=O)(=O)N4CCCC4)ccc32)cc1 -29.7%
CCOc1cc(-c2nnc(SCC(=O)NC3CCCCC3)nc2-c2ccc(OC)c(OCC)c2)ccc1OC -2.09%
CC(C)NC(=O)C1CCCN(c2ncnc3onc(-c4ccc(F)cc4)c23)C1 (stereo not given) -15.7%
Cc1ccc(-n2nc(C(=O)N(C)c3ccc(C)c(C)c3)c3c4ccccc4n(C)c3c2=O)cc1 -5.03%
Cc1ccc(NC(=O)c2c(C)oc3ccc(O)c(CN4CCN(Cc5ccccc5)CC4)c23)cc1 8.66%
COc1ccc(OC)c(-c2cc(C(=O)Nc3c(C)nn(Cc4ccc(C)cc4)c3C)no2)c1 -4.39%
O=[N+]([O-])c1ccc(S(=O)(=O)N2CCn3cccc3C2c2ccc(Br)cc2)cc1 (stereo not given) -8.1%
COc1ccc(C(CNC(=O)c2oc3cc(Br)ccc3c2C)N2CCCCC2)cc1 (stereo not given) -4.48%
Cc1ccccc1CNC(=O)C1CCCCN1S(=O)(=O)c1ccc(F)cc1 (stereo not given) 20.6%
Cc1ccc(-n2ncc3c(NCCCN(C)C)ncnc32)cc1Cl 3.11%
O=C(Cn1ncc2c3ccccc3n(Cc3ccccc3)c2c1=O)NCc1ccccn1 2.26%
COc1ccc(Nc2ncc3c(n2)CCN(Cc2sccc2C)C3)c(OC)c1 -2.55%
Cc1cccc(NC(=O)CCCn2nc(C)c3c(C)n(-c4ccccc4)nc3c2=O)c1C 7.76%
Cc1cc(=O)n(CC(=O)Nc2ccc(Cl)c(Cl)c2)c(-n2nc(C)cc2C)n1 23.6%
CCOC(=O)CN1C(=O)N(c2ccc(C)c(C)c2)S(=O)(=O)c2ccccc21 -1.06%
Oc1ccc(OCc2ccccc2)cc1 4.01%
COC(=O)c1ccccc1NC(=O)CSc1n[nH]c(CC(C)C)n1 -8.4%
O=C(CC1N=C2c3ccccc3N=C(SCc3cccc(F)c3)N2C1=O)NCc1cccs1 (stereo not given) -3.52%
COc1cccc(NC(=O)c2oc3ccccc3c2NC(=O)c2ccccc2C)c1 5.78%
CCOc1ccc(CNC(=O)c2ccc(CSc3nc4ccncc4n3Cc3ccc(F)cc3)cc2)cc1 2.6%
COc1ccc(OC)c(Nc2nc3ccccc3nc2-n2nc(C)cc2C)c1 2.92%
Cc1ccc(CNC(=O)CCNS(=O)(=O)c2ccc3c(c2)CCCC(=O)N3)cc1 -13.5%
CCCCN(CCCC)CCCNC(=O)c1ccc2nc(N3CCCCC3)sc2c1 -0.673%
Cc1c(C(=O)OC2CCC(C)CC2)[nH]c2c1C(=O)CC(c1ccc(F)cc1)C2 (stereo not given) 1.84%
Cc1ccc(Sc2c(C)nn(C(C)(C)C)c2OC(=O)CC(C)C)cc1 -11.4%
CCOC(=O)c1cccc(NC(=O)CCc2c(C)nn(-c3ccc(N4CCCCC4)nn3)c2C)c1 -20.6%
CCCCN1C(=O)c2[nH]nc(-c3ccccc3O)c2C1c1ccc(OCc2ccccc2)c(OC)c1 (stereo not given) -26.2%
Cc1ccccc1NC(=O)c1c(NC(=O)c2ccccc2F)sc2c1CCC(C)C2 (stereo not given) -1.38%
COc1ccc(Cn2ccc3nc(C)c(C(=O)N4CCN(c5ccc(F)cc5)CC4)cc3c2=O)cc1 9.94%
CC(C)(C)c1[nH]cnc1C=c1[nH]c(=O)c(=Cc2ccccc2)[nH]c1=O 0.182% [at 92.2 µM]
CSc1ccc(C2c3c(-c4ccccc4O)n[nH]c3C(=O)N2Cc2ccncc2)cc1 (stereo not given) -15.6%
Cc1ccc2nc(CSc3nnc(NC(=O)C(C)C)s3)cc(=O)n2c1 -0.204%
Cc1cccc2c(=O)cc(CSc3ccccc3NC(=O)c3cccc(Cl)c3)[nH]c12 1.47%
CCc1ccc(-n2nc(C)c3c(C)cc(=O)n(CC(=O)Nc4cc(Cl)ccc4OC)c32)cc1 -9.81%
CCCN1CCN(c2nnc(-n3cccc3C(=O)Nc3ccccc3C(F)(F)F)s2)CC1 -7.8%
COc1cc(NC(=O)NCCc2c(C)nn(C)c2C)cc(OC)c1OC -10%
Cc1cccc(C(=O)NCCc2nc3ccccc3n2CCC(C)C)c1 1.11%
CN[C@@H]1[C@@H](O)[C@@H](O[C@@H]2[C@@H](O)[C@H](O[C@H]3O[C@H](CN)[C@@H](O)[C@H](O)[C@@H]3O)[C@@H](N)C[C@@H]2NC(=O)[C@@H](O)CN)OC[C@]1(C)O 0.661%
COc1ccc(NCc2cc3ccc(OC)cc3n(CC(=O)Nc3ccc(C)c(C)c3)c2=O)cc1 -15.7%
Cc1cccc(N2C(=O)CSC23C(=O)N(C)c2ccccc23)c1 (stereo not given) 0.728%
Cc1cccc(OCC(=O)Nc2c(C(=O)Nc3ccc(F)cc3)oc3ccccc23)c1 -3.56%
COc1ccc(S(=O)(=O)Nc2cccc(-c3ccc(N4CCCCCC4)nn3)c2)cc1OC 1.41%
O=C(CSc1ccnc(=O)[nH]1)NCc1ccc(F)cc1 -2.15%
COc1cccc(C(c2sc3nc(-c4ccco4)nn3c2O)N2CCC(C)CC2)c1 (stereo not given) 15.2%
CCC1CN(C(=O)NCc2ccc(F)cc2)c2cc(C)ccc2O1 (stereo not given) 10.4%
CCc1ccc(NC(=O)C2CCCN(S(=O)(=O)c3ccc4[nH]c(=O)ccc4c3)C2)cc1 (stereo not given) -27.6%
COC(=O)c1sccc1S(=O)(=O)N1CCN(c2cccc(C)c2)C(C)C1 (stereo not given) 4.08%
COc1ccc(OC)c(CCNC(=O)c2ccc3c(c2)N(Cc2ccccc2)CCS3)c1 19.5%
CN1C(=O)c2ccccc2Sc2ccc(NC(=O)Cc3ccc(Cl)cc3)cc21 -37%
Cc1ccc(-n2cc(-c3ccccc3)c3c(N4CCC(C)CC4)ncnc32)cc1Cl -12%
CCCCc1ccc(NC(=O)Cn2cnc3c(oc4ccccc43)c2=O)cc1 -8.67%
O=C(NCc1ccc(Cl)cc1)c1ccc2c(c1)nnn2C1CCCC1 -7.45%
CCOC(=O)c1cccc(NC(=O)C2COc3ccc(OC)cc3C2)c1 (stereo not given) 2.25%
N=c1ccn2c(n1)O[C@H]1[C@@H](O)[C@@H](CO)O[C@H]12 16.6%
O=C(NCc1ccccc1)C1CCN(c2ncnc3c2nc2n3CCCCC2)CC1 -5.19%
CCOC(=O)c1cnc2c(C)cc(C)cc2c1NCCN1CCOCC1 3.9%
Cc1nc2nc(NCc3ccccc3Cl)[nH]n2c(=O)c1Cc1ccccc1 3.49%
Cc1ccc(C)c(OCc2nc3ccccc3n2C)c1 -9.1%
Cc1ccccc1NC(=O)CSc1nc2c(oc3ccccc32)c(=O)n1Cc1ccco1 -23%
CCCSC1=NC2(CCN(C(=O)NC3CCCCC3)CC2)N=C1c1ccc(C)cc1 5.72%
CCOc1ccc(CNC(=O)c2ccc(NC(=O)N3CCCCc4ccccc43)cc2)cc1 4.14%
Cc1c(NC(=O)Cc2ccc(Cl)cc2)cccc1-c1nc2cccnc2s1 0.621%
CCOC(=O)c1c(S(=O)(=O)N2CCCC(C(=O)Nc3cccc(CC)c3)C2)c(C)n(CC)c1C (stereo not given) -1.59%
CSc1ncc(Cl)c(C(=O)Nc2c(C(=O)c3ccc(Cl)cc3)oc3ccccc23)n1 0.314%
Cc1ccc(-n2ncc(C(=O)N3CCN(c4ccccc4F)CC3)c2C2CCN(C(=O)OC(C)(C)C)CC2)cc1C 0.176%
Cc1cccc(OC(=O)CSc2nnc(-c3cccs3)o2)c1C -2.81%
O=C(NCCO[N+](=O)[O-])c1cccnc1 4.37%
Cc1cc(C)cc(NC(=O)NCc2c(-n3cccc3)sc3c2CCCC3)c1 -2.12%
Cc1ccccc1Nc1c(-c2c[nH]c3ccccc23)nc2ccc(Cl)cn12 -10.5%
Cc1cccc(CNC(=O)Cn2nc(C)c3nn(-c4ccc(Cl)cc4)c(C)c3c2=O)c1 -2.96%

outcome, inactive:
COc1ccc2oc(-c3cccc(NC(=O)c4cc([N+](=O)[O-])ccc4N4CCOCC4)c3)nc2c1
CCOc1ccccc1NC(=O)CCS(=O)(=O)c1ccc2c(c1)oc(=O)n2C
COc1ccc(NC(=O)CC2C(=O)N(c3ccccc3)C(=O)N2CCc2sccc2C)cc1 (stereo not given)
CCOc1ccc(CNC(=O)C2CCCN(c3nn4cc(-c5ccc(OC)cc5)nc4s3)C2)cc1 (stereo not given)
Cc1ccc(S(=O)(=O)N(CC(=O)Nc2cccnc2)c2cc(Cl)ccc2C)cc1
Cc1ccc(CN2CCC(CNC(=O)c3cnn(-c4ccc(C)cc4)c3C3CCN(C(=O)OC(C)(C)C)CC3)CC2)cc1
Cc1ccc(C(=O)CSc2nc3cc(C(=O)NC4CCCC4)ccc3c(=O)n2CC2CCCO2)c(C)c1 (stereo not given)
CC(C)CCNc1nc2c(-c3ccccc3)nnn2c2ccccc12
Cc1nn2c(=O)cc(COc3ccc(/C=C(\C#N)C(=O)Nc4ccccc4C)cc3)nc2s1
COc1ccc(-c2nnn3c2nc(NCCc2ccc(OC)c(OC)c2)c2ccccc23)cc1
COc1ccc2c(c1)c1c(c(=O)n(-c3cc(Cl)ccc3C)c(=O)n1CC(=O)N1CCCC1)n2C
COc1ccccc1NC(=O)c1ncn(-c2ccccc2)n1
CCCCn1cc2c(c1-c1ccc(Br)cc1)c(=O)n(C)c(=O)n2C
CCOc1ccc(-c2cc3c(=O)n(Cc4nc(-c5ccc(OCC)c(OC)c5)oc4C)ccn3n2)cc1Cl
CCOc1ccc(OCC)c(NC(=O)c2cnn(-c3ccc(F)cc3)c2-n2cccc2)c1
O=c1c2sc3ccccc3c2n(Cc2cccc(Cl)c2)c(=O)n1Cc1ccccc1
CC(=O)Nc1ccc(S(=O)(=O)NCCc2csc3nc(-c4ccc(Cl)cc4)nn23)cc1
CCOC(=O)C1CCN(C(=O)Cn2nc(C)n3c(cc4c(OC)cccc43)c2=O)CC1
Cc1cccc(N(C)S(=O)(=O)c2nnc(NC(=O)C(C)Oc3ccccc3)s2)c1 (stereo not given)
COc1ccc(C)cc1NC(=O)CSc1nc(=O)n(Cc2ccco2)c2c1CCC2
Cc1ccc(CCNC(=O)C2CC(=O)N(CCc3ccc(C)cc3)C2)cc1 (stereo not given)
O=C(Nc1ccccc1OCc1cc(=O)n2ccccc2n1)Nc1ccccc1C(F)(F)F
CCOC(=O)c1c(C)[nH]c(C)c1S(=O)(=O)NCC(=O)Nc1cccc(Cl)c1
O=C(CSc1nc(Nc2ccccc2)c2ccccc2n1)c1ccc(Cl)cc1
